# Test results as given in paper PMC4336329 (PLoS ONE, 2015).
# Screen size: about 310,000 compounds; about 2,200 (0.71%) showed an effect of 50% or more. Effects have a minus sign here. The list shows a part of the results.
# Biological target: human ether-à-go-go-related gene (hERG) potassium channel (human, UniProt Q12809)
# Experiment: primary screen, population patch clamp on CHO cells stably expressing hERG
# Chain of human ether-à-go-go-related gene (hERG) potassium channel (Q12809 whole entry, looked up): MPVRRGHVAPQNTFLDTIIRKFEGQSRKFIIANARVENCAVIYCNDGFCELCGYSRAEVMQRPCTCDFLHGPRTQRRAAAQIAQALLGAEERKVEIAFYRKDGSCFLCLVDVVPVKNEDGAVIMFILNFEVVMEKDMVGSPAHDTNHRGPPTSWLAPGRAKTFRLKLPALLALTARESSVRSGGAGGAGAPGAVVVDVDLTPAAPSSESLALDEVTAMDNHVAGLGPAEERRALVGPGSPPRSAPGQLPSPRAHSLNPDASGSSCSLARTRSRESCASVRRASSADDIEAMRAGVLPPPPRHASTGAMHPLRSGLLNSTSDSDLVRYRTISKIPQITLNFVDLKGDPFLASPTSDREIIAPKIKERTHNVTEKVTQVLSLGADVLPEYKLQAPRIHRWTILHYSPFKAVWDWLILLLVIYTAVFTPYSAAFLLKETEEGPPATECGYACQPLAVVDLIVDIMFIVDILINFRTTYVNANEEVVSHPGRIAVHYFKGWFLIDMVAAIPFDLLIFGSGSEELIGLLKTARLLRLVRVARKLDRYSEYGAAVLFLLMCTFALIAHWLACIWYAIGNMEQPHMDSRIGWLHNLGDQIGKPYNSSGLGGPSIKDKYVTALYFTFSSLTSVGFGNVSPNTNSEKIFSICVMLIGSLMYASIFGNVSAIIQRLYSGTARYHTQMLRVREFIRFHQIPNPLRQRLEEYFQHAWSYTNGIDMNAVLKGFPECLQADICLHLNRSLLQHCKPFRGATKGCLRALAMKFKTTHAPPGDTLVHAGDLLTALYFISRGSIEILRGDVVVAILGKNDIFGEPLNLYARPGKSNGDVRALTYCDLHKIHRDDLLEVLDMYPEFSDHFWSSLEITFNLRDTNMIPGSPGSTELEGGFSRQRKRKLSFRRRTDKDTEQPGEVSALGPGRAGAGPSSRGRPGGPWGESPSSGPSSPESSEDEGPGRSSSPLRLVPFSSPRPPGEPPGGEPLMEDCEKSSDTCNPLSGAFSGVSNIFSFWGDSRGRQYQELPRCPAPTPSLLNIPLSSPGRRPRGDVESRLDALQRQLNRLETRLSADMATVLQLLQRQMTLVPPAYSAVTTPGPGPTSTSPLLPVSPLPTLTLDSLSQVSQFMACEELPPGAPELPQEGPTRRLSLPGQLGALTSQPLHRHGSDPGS
row,SMILES,"hERG current change (%, negative = inhibition) at 1uM [%]"
1,CC(=O)c1c(C)[nH]c(C(=O)OCC(=O)Nc2ccc(Cl)cc2[N+](=O)[O-])c1C,-0.254
2,COC(=O)C1=C(c2ccccc2)C[C@@H]2CC[C@H]1N2C(=O)NCCNC(C)=O,9.59
3,CC(C)c1nc(SCC(=O)NC(=O)NC(C)(C)C)n[nH]1,3.39
4,Cc1c(Cl)cccc1NC(=O)CCN1CCCC(C)C1 (centres unmarked),2.32
5,CSc1ccccc1C(=O)C1CCCN(Cc2cnn(-c3ccccc3)c2)C1 (centres unmarked),-10.7
6,CCOC(=O)c1c(NC(=O)c2cccs2)sc2c1CCC2,24
7,O=C(NCCCc1ccccc1)C1CCC(CNc2c(N3CCCCC3)c(=O)c2=O)CC1 (centres unmarked),10.7
8,CN(C(=O)CSc1nc2ccc(Br)cc2c(=O)n1Cc1ccco1)C1CCS(=O)(=O)C1 (centres unmarked),-83.1
9,CCN(CC(=O)Nc1ccccc1OC)C(=O)C1CCC1,13.6
10,CCCCCC(=O)NC(=S)Nc1ccc2oc(=O)ccc2c1,10.9
11,CCOc1ccc(C(=O)NC(=S)Nc2ncccc2C)cc1[N+](=O)[O-],-19.1
12,O=C(C(=O)N1CCCC1)c1c(-c2ccccc2)[nH]c2ccccc12,10.6
13,COc1cc(OC)c(NC(=O)CCNS(=O)(=O)c2ccc3c(c2)CC(C)N3C(C)=O)cc1Cl (centres unmarked),-2.01
14,COc1ccc(OCCCC(=O)OCC(=O)NNC(=O)c2ccc([N+](=O)[O-])cc2)cc1,11.1
15,Cc1ccc2nc3c(c(Nc4cccc(O)c4)c2c1)CCC3.Cl,-35.1
16,Cc1cc(N2CCCC2=O)cc(C)c1S(=O)(=O)NCCOc1ccc(C(C)(C)C)cc1,1.61
17,O=C(CSC(=S)N1CCCC1)Nc1ncc(Cl)cc1Cl,21.2
18,CCNC(=O)c1ccc(C2SCC(=O)N2CCc2ccccc2)cc1 (centres unmarked),-10.8
19,COc1ccccc1NC(=S)NC(=O)c1c(-c2ccccc2Cl)noc1C,13.1
20,Cc1cc2cc(C)c(NCCNC(=O)c3ccccc3Cl)nc2cc1C,10.1
21,CC(C)(C)NC(=O)C(c1ccc(F)cc1)N(Cc1cccs1)C(=O)c1ccc(CN2CCOCC2)o1 (centres unmarked),10.7
22,CC(=O)Nc1cccc(C(=O)N2CCC(n3nccc3NC(=O)CC(C)C)CC2)c1,-12.4
23,O=C(c1cc(-c2cccs2)nc2ccccc12)N1CCN(S(=O)(=O)c2cccc(F)c2)CC1,11
